Measurements taken from the antibiotic and cytotoxicity screens of Wong et al. (2023).
This is one part of the list.

What was measured:
HSkMC = human skeletal muscle cells; assay: cytotoxicity call (relative viability < 0.9); conditions: 10 µM
HepG2 = assay: cytotoxicity call (relative viability < 0.9); conditions: 10 µM
S. aureus RN4220 = assay: growth inhibition call (relative growth <= 0.2); conditions: 50 µM

Compound | cytotoxicity call (HSkMC) | cytotoxicity call (HepG2) | growth inhibition call (S. aureus RN4220)
NCCSc1cc(C(F)(F)F)nc2ccccc12 | inactive | inactive | inactive
C[C@@H]1CN([C@@H](C)CO)C(=O)CCCn2nncc2CO[C@H]1CN(C)S(=O)(=O)c1ccc2ccccc2c1 | inactive | inactive | inactive
C[C@@H]1CN([C@H](C)CO)C(=O)Cc2cc(NC(=O)Nc3cccc4ccccc34)ccc2O[C@@H]1CN(C)C(=O)Nc1ccc(F)cc1 | inactive | inactive | inactive
C[C@@H]1CCCCO[C@@H](CN(C)Cc2ccc(C(=O)O)cc2)[C@H](C)CN([C@H](C)CO)C(=O)c2cc(NC(=O)c3ccccc3)ccc2O1 | inactive | inactive | inactive
COc1ccc(-c2csc(CCN)n2)cc1 | inactive | inactive | inactive
C[C@H](CO)N1C[C@H](C)[C@H](CN(C)S(=O)(=O)c2cccc(F)c2)Oc2ncc(C#CC3CC3)cc2C1=O | inactive | inactive | inactive
COc1ccc(NC(=O)N(C)C[C@@H]2OCCCC[C@@H](C)Oc3ccc(NC(=O)Nc4c(C)noc4C)cc3C(=O)N([C@H](C)CO)C[C@@H]2C)cc1 | inactive | inactive | inactive
COc1ccc(NC(=O)Nc2ccc3c(c2)C(=O)N([C@@H](C)CO)C[C@H](C)[C@H](CN(C)Cc2ccc(C(=O)O)cc2)OCCCC[C@H](C)O3)cc1 | inactive | inactive | inactive
C[C@@H]1CN([C@@H](C)CO)C(=O)c2cccc(NC(=O)Nc3ccc(C(F)(F)F)cc3)c2O[C@@H]1CN(C)Cc1ccc(C(=O)Nc2ccccc2N)cc1 | inactive | active | inactive
C[C@@H]1CCCCO[C@H](CN(C)C(=O)Nc2ccc(F)cc2)[C@H](C)CN([C@@H](C)CO)C(=O)c2cc(NS(=O)(=O)c3ccccc3)ccc2O1 | inactive | inactive | inactive
C[C@H](CO)N1C[C@H](C)[C@H](CN(C)S(=O)(=O)c2cccs2)Oc2ccc(NS(=O)(=O)c3ccccc3)cc2C1=O | inactive | inactive | inactive
C[C@H]1CN([C@@H](C)CO)C(=O)c2ccccc2-c2ccccc2CO[C@@H]1CN(C)C(=O)Nc1cccc(F)c1 | inactive | inactive | inactive
C[C@@H]1CCCCO[C@@H](CN(C)CC2CC2)[C@H](C)CN([C@@H](C)CO)C(=O)c2cc(NS(C)(=O)=O)ccc2O1 | inactive | inactive | inactive
C[C@H](CO)N1C[C@H](C)[C@H](CN(C)C(=O)Nc2ccc(C(F)(F)F)cc2)Oc2ccc(NC(=O)Nc3ccc4c(c3)OCO4)cc2C1=O | inactive | inactive | inactive
C[C@@H]1CN([C@H](C)CO)C(=O)c2cc(C#C[C@@H](C)O)cnc2O[C@H]1CN(C)Cc1cncnc1 | inactive | inactive | inactive
CO[C@H]1CN(C)C(=O)c2ccc(NS(=O)(=O)c3ccccc3C)cc2OC[C@@H](C)N(S(C)(=O)=O)C[C@@H]1C | inactive | inactive | inactive
Cc1noc(C)c1S(=O)(=O)Nc1ccc2c(c1)CC(=O)N([C@@H](C)CO)C[C@H](C)[C@H](CN(C)Cc1ccccc1)O2 | inactive | inactive | inactive
CCNc1nc2nonc2nc1NCC | inactive | inactive | inactive
C[C@@H]1CN([C@@H](C)CO)C(=O)Cc2cc(NC(=O)Nc3ccccc3)ccc2O[C@H]1CN(C)S(C)(=O)=O | inactive | inactive | inactive

Compound | cytotoxicity call (HSkMC) | cytotoxicity call (HepG2) | growth inhibition call (S. aureus RN4220)
Cl.Cl.NCCNCCNCCN | inactive | inactive | inactive
COc1ccc(NC(=O)N(C)C[C@H]2Oc3ccc(NS(=O)(=O)c4cn(C)cn4)cc3CC(=O)N([C@H](C)CO)C[C@H]2C)cc1 | inactive | inactive | inactive
O=C(Cc1ccncc1)NCC[C@H]1CC[C@H](NC(=O)C2CCOCC2)[C@@H](CO)O1 | inactive | inactive | inactive
C[C@@H]1CCCCO[C@H](CN(C)Cc2ccccc2)[C@@H](C)CN([C@@H](C)CO)C(=O)c2cc(NS(=O)(=O)c3ccc(Cl)cc3)ccc2O1 | inactive | inactive | inactive
C=CCOC(=O)C1=C[C@@H](c2csc3ccccc23)C[C@@H](OCc2ccc(COC(=O)NCCCCCC(=O)NO)cc2)O1 | inactive | inactive | inactive
CCn1nc(C(=O)O)c(=O)c2cc3c(cc21)OCO3 | inactive | inactive | inactive
COCC(=O)Nc1ccc2c(c1)C(=O)N(C)[C@H]1CC[C@H](CC(=O)NC3Cc4ccccc4C3)O[C@H]1CO2 | inactive | inactive | inactive
C[C@@H]1CN([C@H](C)CO)C(=O)c2c(c3ccccc3n2C)-c2ccccc2CO[C@@H]1CN(C)C(=O)Nc1cccc(C(F)(F)F)c1 | inactive | active | inactive
CN(C)C(=O)COC[C@H]1CN(S(C)(=O)=O)Cc2nnn(C)c21 | inactive | inactive | inactive
C[C@@H]1CCCCO[C@@H](CN(C)Cc2ccccc2)[C@H](C)CN([C@H](C)CO)C(=O)c2cc(NC(=O)Nc3ccc4c(c3)OCO4)ccc2O1 | inactive | inactive | inactive
C[C@H](CO)N1C[C@H](C)[C@H](CN(C)CC2CCCCC2)Oc2c(NC(=O)CCCCCC(=O)Nc3ccccc3N)cccc2C1=O | inactive | inactive | inactive
C[C@H](CO)N1C[C@H](C)[C@H](CN(C)S(=O)(=O)c2ccc(Oc3ccccc3)nc2)OCc2cn(nn2)CCCC1=O | inactive | inactive | inactive
C[C@H]1CN([C@@H](C)CO)C(=O)Cc2cc(NS(=O)(=O)c3ccc(Cl)cc3)ccc2O[C@@H]1CN(C)Cc1ccc(C(=O)Nc2ccccc2N)cc1 | inactive | inactive | inactive
COc1cc(C(=O)N2CCC(N3CCN(C)CC3)CC2)ccc1Nc1ncc2c(n1)N(C)c1ccccc1C(=O)N2C | inactive | active | inactive
CC(C)NC(=O)Nc1ccc2c(c1)C(=O)N([C@H](C)CO)C[C@H](C)[C@H](CN(C)C(=O)Nc1ccc(C(F)(F)F)cc1)OCCCC[C@@H](C)O2 | inactive | inactive | inactive
Cc1noc(C)c1NC(=O)Nc1ccc2c(c1)C(=O)N([C@@H](C)CO)C[C@@H](C)[C@H](CN(C)Cc1ccc(Oc3ccccc3)cc1)O2 | inactive | inactive | inactive
Cc1ccc(-c2cnc3c(c2)C(=O)N([C@H](C)CO)C[C@@H](C)[C@@H](CN(C)C(=O)Cc2cccnc2)O3)cc1 | inactive | inactive | inactive
Cc1ccc(S(=O)(=O)N(C)C[C@@H]2OCCCC[C@@H](C)Oc3ccc(NC(=O)C4CCCCC4)cc3C(=O)N([C@@H](C)CO)C[C@@H]2C)cc1 | inactive | inactive | inactive
C[C@H](CO)N1C[C@H](C)[C@H](CN(C)C(=O)NC2CCCCC2)OCCCC[C@H](C)Oc2ccc(NC(=O)CCC(F)(F)F)cc2C1=O | inactive | inactive | inactive

Compound | cytotoxicity call (HSkMC) | cytotoxicity call (HepG2) | growth inhibition call (S. aureus RN4220)
C[C@@H]1CN([C@@H](C)CO)C(=O)Cc2cc(NC(=O)Nc3ccc(C(F)(F)F)cc3)ccc2O[C@H]1CN(C)Cc1ccc2c(c1)OCO2 | inactive | active | inactive
Cc1ccccc1S(=O)(=O)N1C[C@@H](O)COC[C@@H]2O[C@@H](CC(=O)N3CCN(C)CC3)CC[C@H]21 | inactive | inactive | inactive
COc1ccc(S(=O)(=O)N(C)C[C@H]2Oc3ccc(NC(=O)Cn4cnnn4)cc3CC(=O)N([C@@H](C)CO)C[C@@H]2C)cc1 | inactive | inactive | inactive
C=CCC[C@@H](Cc1ccc(F)cc1)C(=O)O[C@H](CNC(=O)[C@@H](CC=C)CC(=O)N[C@@H](CO)Cc1ccccc1)c1ccccc1 | inactive | inactive | inactive
CC(C)NC(=O)N(C)C[C@@H]1OCCCC[C@@H](C)Oc2ccc(NC(=O)C3CCCCC3)cc2C(=O)N([C@@H](C)CO)C[C@H]1C | inactive | inactive | inactive
CC(C)NC(=O)N(C)C[C@@H]1Oc2ccc(NC(=O)CCCN(C)C)cc2CC(=O)N([C@H](C)CO)C[C@@H]1C | inactive | inactive | inactive
NCC1CCSCC1 | inactive | inactive | inactive
COc1cc(OC)c(CN(CC#CCOC(=O)NCCCCCC(=O)NO)S(=O)(=O)c2ccccc2[N+](=O)[O-])c(OC)c1 | inactive | inactive | inactive
COc1ccc2c3c(n(c2c1)C)[C@@H](CO)N(C[C@]13CCN(CC1)C(=O)Nc1c(noc1C)C)C(=O)Nc1ccc(cc1)F | inactive | inactive | inactive
COc1cc(O)c2c(=O)c(O)c(-c3ccc(O)c(O)c3)oc2c1 | inactive | inactive | inactive
C[C@@H]1CN([C@@H](C)CO)C(=O)c2cc(N(C)C)ccc2O[C@@H](C)CCCCO[C@H]1CN(C)C(=O)CCCN(C)C | inactive | inactive | inactive
COC(=O)C[C@@H]1CC[C@@H]2[C@H](COc3ccc(NS(=O)(=O)c4ccccc4Cl)cc3C(=O)N2C)O1 | inactive | inactive | inactive
C[C@@H]1CCCCO[C@@H](CN(C)C(=O)Nc2ccccc2)[C@@H](C)CN([C@@H](C)CO)C(=O)c2cc(NC(=O)Nc3ccc(C(F)(F)F)cc3)ccc2O1 | inactive | active | inactive
CCSc1ncnc(N)n1 | inactive | inactive | inactive
c1ccc(Cc2nn[nH]n2)cc1 | inactive | inactive | inactive
C[C@H](CO)N1C[C@H](C)[C@@H](CN(C)S(=O)(=O)c2cn(C)cn2)Oc2c(NC(=O)c3cnccn3)cccc2C1=O | inactive | inactive | inactive
NCCCC[C@@H](N)C(=O)N[C@@H](Cc1c[nH]c2ccccc12)C(=O)N[C@@H](CCCCN)C(=O)O | inactive | inactive | inactive
C[C@@H]1CN([C@@H](C)CO)C(=O)c2c(c3ccccc3n2C)-c2ccccc2CO[C@@H]1CN(C)S(=O)(=O)c1ccc(Cl)cc1 | inactive | inactive | inactive
